# According to PubChem BioAssay AID651820 (National Center for Advancing Translational Sciences (NCATS), 2012):
# About 12,000 (3.5%) of roughly 340,000 compounds were called active. Inconclusive results, whose numbers are uncertain, are shown with a selection of clear calls. The call rests on the fitted dose curve; in most records, active means well fitted inhibition curve with a large enough effect; inconclusive means small, poorly fitted or top-dose-only effect, or another doubt; inactive means no such curve, though single readings can be large or run the other way. Potencies of inconclusive entries are left out as doubtful fits.
# Assay: qHTS Assay for Inhibitors of Hepatitis C Virus (HCV)
# Settings: Huh7.5.1 HCVcc-Cre (HCVcc is cell-culture hepatitis C virus) infection, luciferase reporter, 44 h; activity change, negative = inhibition: at 41.8 µM (top of the series) unless noted
# Method in brief: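 Reporter virus HCVcc-Cre (~0.5 moi) infects cells exposed to compound; seeding density 1,000 cells/well with 4 h settling beforehand. Luminescence, 15 sec read, taken 44 h post-infection following a 15 min RT substrate incubation.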
# On the % scale 0 is the no-effect control and ±100 the full control effect; potency means the concentration at half of the fitted maximal effect; tags describe the fitted curve by direction and shape.
Structure (SMILES),Potency,"activity change, negative = inhibition"
CS(=O)(=O)N(CC(O)Cn1c2ccccc2c2ccccc21)c1cccc2ccccc12 (stereo not drawn),active: 11.2 µM,
CCC(CC)NC(=O)c1cc2c(C)nn(Cc3ccccc3Cl)c2s1,"inconclusive [inhibitor, partial curve, poor fit]",
O=C(N/N=C/c1ccc(Br)cc1)c1ccc(NC(=O)c2ccccc2)cc1,,inactive: 32.3%
CCSC1=NC(C)(C)C=C(/C=C/c2ccc(Cl)cc2Cl)N1,"inconclusive [inhibitor, single point]",
Cc1cc(NCc2ccccc2)n2ncc(-c3ccccc3)c2n1,"inconclusive [inhibitor, single point]",
Cc1cccc(OCC(=O)N/N=C/c2cc([N+](=O)[O-])ccc2N2CCOCC2)c1,"inconclusive [inhibitor, full curve]",
COc1ccc(S(=O)(=O)n2ccc(-c3cnc(-c4ccccc4)s3)n2)cc1,"inconclusive [inhibitor, single point]",
CCCNC(=O)CN1C(=O)c2ccccc2Sc2ncccc21,,inactive: 26.3%
Cc1nc(C)c(-c2ccc(SCC(=O)Nc3ccc(F)cc3F)nn2)s1,"inconclusive [inhibitor, single point]",
Cc1cc(N2CCCCCC2)n2nc(C)c(-c3ccccc3)c2n1,"inconclusive [inhibitor, full curve]",
COc1ccc(C2=NN(CC(=O)Nc3ccccc3C)C(=O)CC2)cc1,"inconclusive [inhibitor, single point]",
NC(=O)[C@H](Cc1cc2ccccc2s1)NC(=O)[C@@H]1CC2(CC(c3cccc(NC(=O)[C@@H]4CCC(=O)N4)c3)=NO2)CN1C(=O)c1ccccc1 (stereo partly drawn),,inactive: 21.7%
Cc1ccc(CN(CC(O)COc2cccc3[nH]cc(C)c23)C(C)(C)C)cc1 (stereo not drawn),"inconclusive [inhibitor, single point]",
O=S(=O)(NCC(c1ccco1)N1CCCCC1)c1cccc(C(F)(F)F)c1 (stereo not drawn),"inconclusive [inhibitor, single point]",
CC(C)C1N(C(=O)N(C)C)CCN1S(=O)(=O)c1ccccc1 (stereo not drawn),,inactive: -6.14%
Cc1ccc(/C=C(/NC(=O)c2ccccc2)C(=O)NCCc2c[nH]c3ccccc23)o1,"inconclusive [inhibitor, single point]",
CC(C)(C)OC(=O)NCc1ccc(NC(=O)c2nc[nH]c2C(=O)N[C@@H](Cc2ccccc2)C(=O)OC(C)(C)C)cc1,"inconclusive [inhibitor, single point]",
c1ccc(-c2oc3ncnc(N4CCOCC4)c3c2-c2ccccc2)cc1,,inactive: -11%
Cc1ccc(S(=O)(=O)CCC(O)c2ccc(Cl)cc2)cc1 (stereo not drawn),,inactive: 10.2%
O=C(c1nc2nc(-c3ccc(Cl)cc3)cc(C(F)(F)F)n2n1)N1CCOCC1,"inconclusive [inhibitor, partial curve, poor fit]",
O=c1c(-c2ccc(O)cc2)coc2cc(OC3OC(CO)C(O)C(O)C3O)cc(O)c12 (stereo not drawn),,inactive: 4.1% [at 8.37 µM]
Fc1cccc(COc2ccccc2CNc2ccccc2)c1,"inconclusive [inhibitor, single point]",
N#C/C(=C/c1cccnc1)c1ccccc1,"inconclusive [inhibitor, single point]",
CCN(CC)S(=O)(=O)c1ccc(C(=O)Nc2cccc(C)c2)cc1,"inconclusive [inhibitor, single point]",
CCCCCCOc1ccc(CN2CCN(CC)CC2)cc1,"inconclusive [inhibitor, partial curve]",

Structure (SMILES),Potency,"activity change, negative = inhibition"
CCOc1cc2c(cc1C=O)OC(C)C2 (stereo not drawn),,inactive: -7.62%
CCN1C(=O)/C(=C\C(=O)c2cccs2)c2cc(Br)ccc21,"inconclusive [inhibitor, single point]",
FC(F)(F)c1nc(N2CCCC2)ncc1-c1nnnn1-c1ccc(Cl)cc1,active: 10 µM,
CCN(CC)c1ncn(Cc2c(Cl)cccc2Cl)c2ncnc1-2,"inconclusive [inhibitor, single point]",
CSc1ccc(CN2CCN(C(C)C)C(CCO)C2)cc1 (stereo not drawn),,inactive: -15.4%
Cc1ccc(C)c(S(=O)(=O)N2CCCC2CNC(=O)C(=O)NCCc2ccco2)c1 (stereo not drawn),"inconclusive [inhibitor, single point]",
Cc1ccccc1C(=O)Nc1cccc(NC(=O)c2ccc(-c3ccc(Br)cc3)o2)c1,"inconclusive [inhibitor, partial curve, poor fit]",
Cc1cc(C(=O)COc2ccccc2C(N)=O)c(C)n1C1CC1,"inconclusive [inhibitor, single point]",
CC(=O)Nc1ccc(NC(=O)c2cc(-c3cc(C)c(C)cc3O)n[nH]2)cc1,"inconclusive [inhibitor, partial curve]",
COc1cc(C(=O)OCCCN2CCOCC2)ccc1O,,inactive: 5.59%
O=C1CCCN1CCNC(=S)Nc1ccccc1,,inactive: 15.6%
CCSc1nnc(NC(=O)NC(C)(C(F)(F)F)C(F)(F)F)s1,,inactive: -13.8%
COc1cc(NC(=O)CN(C)S(=O)(=O)c2cccs2)cc(OC)c1,,inactive: 13.3%
C=CCNc1nc(-c2ccccc2)c(C(=O)OCC)cc1C#N,"inconclusive [inhibitor, single point]",
CN(CCc1ccccc1)C(=O)c1cccc(NC(=O)Cc2cccc(NC(=O)C3CCN(C(=O)C4CCCC4)CC3)c2)c1,"inconclusive [inhibitor, partial curve]",
Cc1ccc(Cl)cc1N1CCN(S(=O)(=O)c2cc3c(cc2C)NC(=O)CO3)CC1,,inactive: -14.9%
CN(CC(=O)N1CCN(Cc2ccccc2)CC1)C(=O)Cc1cccc2ccccc12,"inconclusive [inhibitor, partial curve, poor fit]",
O=C(Nc1nccs1)c1cc2sccc2n1Cc1ccc(F)cc1,"inconclusive [inhibitor, full curve, poor fit]",
CCc1ccc2nc(N3CCC(C(=O)N4CCC5(CC4)OCCO5)CC3)sc2c1,active: 11.2 µM,
CCCOc1ccc2ccccc2c1/C=N/n1c(C)nnc1-n1nc(C)cc1C,"inconclusive [inhibitor, partial curve]",
COc1cc2[nH]c(C(=O)Nc3ccc4c(c3)OCCO4)cc2c(OC)c1OC,"inconclusive [inhibitor, full curve]",
CC[n+]1ccc2cc(OC)c(OC)cc2c1Cc1ccc(OC)c(OC)c1,,inactive: -18.1%
CCOC(=O)c1sc(S(C)(=O)=O)c2c1CCc1conc1-2,,inactive: -16.5%
CCOc1cccc2sc(NC(=O)CC)nc12,"inconclusive [inhibitor, partial curve]",
CCC(=O)NC(c1cccs1)c1cc(Cl)c2cccnc2c1O (stereo not drawn),active: 3.98 µM,

Structure (SMILES),Potency,"activity change, negative = inhibition"
COc1cccc(C(=O)Nc2c(F)c(F)c(F)c(F)c2F)c1,"inconclusive [inhibitor, full curve]",
CC1(c2cc(F)ccc2F)NC(=O)N(CC(=O)Nc2cccc(S(=O)(=O)N3CCCC3)c2)C1=O (stereo not drawn),,inactive: 2.22%
CCCc1nc2oc3c(Cl)ncnc3c2c2c1CCCC2,,inactive: -20.9%
COCCn1c(=S)[nH]c2cc(C(=O)N3CCN(c4ccccc4OC)CC3)ccc2c1=O,"inconclusive [inhibitor, partial curve]",
CC1CC(C)CN(C(=O)c2ccc(S(=O)(=O)N3CC(C)CC(C)C3)cc2)C1 (stereo not drawn),,inactive: -16.2%
Cc1ccc(NC(=S)N(CCN2CCOCC2)Cc2ccccc2F)cc1,,inactive: 24.7%
CCOC(=O)c1c(NC(=O)COC(=O)Cn2cnc3ccccc32)sc2c1CCC(C)C2 (stereo not drawn),"inconclusive [inhibitor, single point]",
CC(C)c1ccccc1NC(=O)COC(=O)/C=C/c1cccc([N+](=O)[O-])c1,,inactive: 7.36%
O=C(NCC(=O)N(Cc1ccco1)C(C(=O)NC1CCCC1)c1ccncc1)c1cccs1 (stereo not drawn),,inactive: 14.2%
C=CCNC(=O)c1ccc2c(c1)S(=O)(=O)c1ccccc1C2=O,active: 25.1 µM,
O=C(CC1C(=O)NCCN1Cc1cccc(Oc2ccccc2)c1)NCCCn1cccn1 (stereo not drawn),,inactive: -1.37%
COc1cc2[nH]c3ccccc3c2cc1C,,inactive: 2.26%
CCOc1cccc(C(=O)NC(=S)NCc2cccnc2)c1,"inconclusive [inhibitor, full curve, poor fit]",
Cc1ccc(Cn2c(=N)n(CC(=O)c3ccc([N+](=O)[O-])cc3)c3ccccc32)cc1,"inconclusive [inhibitor, single point]",
CCn1cc(C2=NOC(C(=O)Nc3cc(OC)c(Cl)cc3OC)C2)c(C)n1 (stereo not drawn),,inactive: -23.2%
Cc1ccc(N2CCN(C(=O)c3cccc([N+](=O)[O-])c3)CC2)cc1Cl,"inconclusive [inhibitor, single point]",
Cc1csc(NC(=O)CSc2nnc(NC(=O)NC(C)(C)C)s2)n1,,inactive: 6.74%
CCOC(=O)c1cnc(SCc2ccc(Cl)c(Cl)c2)nc1N1CC1,active: 11.2 µM,
Cc1cc(C(c2ccc(O)cc2)c2cc(C)c(O)cc2C)c(C)cc1O,"inconclusive [inhibitor, single point]",
CCOc1cc(C(=O)NC(C)C2CCCO2)cc(OCC)c1OCC (stereo not drawn),,inactive: 6.15%
Cn1c(CCCOc2ccc(Cl)cc2Cl)n[nH]c1=S,"inconclusive [inhibitor, single point]",
O=C(Cn1nnc2ccccc21)NCc1ccccc1,,inactive: -1.01%
O=C(CN1CCN(c2ccccc2)CC1)Nc1ccccc1Sc1ccccc1,"inconclusive [inhibitor, single point]",
